# Measurements published in the supplement of paper PMC10670038.
# Where a name gives a salt, the structure may show the parent alone. ± gives the standard deviation of the averaged measurements. Whole data set: some 2,000 compounds, median “relative cell viability vs DMSO, compound + 0.2 uM CuET” near 1, cut for the lowest 2% near 0.25. The list shows a part of the results.
# System: TE10
# Assay: relative cell viability vs DMSO, compound + 0.2 uM CuET (fraction); TE10 is an esophageal squamous carcinoma line; higher = less cytotoxic
# Settings: 2 µM; co-treatment: CuET (bis(diethyldithiocarbamate)copper) 0.2 uM; 48 h
# Protocol: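 TE10 ESCC cells (1,000/well, 384-well plates) were treated with Selleck bioactive library compounds at 2 uM combined with 0.2 uM CuET (copper diethyldithiocarbamate) for 48 h. Viability was read by CellTiter-Glo and expressed relative to DMSO wells. Two technical replicates (A, B).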
row,Compound,relative cell viability
1,CC(N)C12CC3CC(CC(C3)C1)C2 (configuration not stated) [Rimantadine],1.04 ± 0.034
2,Fc1cc(-c2cccc3ncc(-c4cnn(C5CCNCC5)c4)nc23)cc(F)c1CN1CCOCC1,1.01 ± 0.19
3,COc1ccc(C[C@@H]2c3cc(OC)c(OC)cc3CC[N@+]2(C)CCC(=O)OCCCCCOC(=O)CC[N@@+]2(C)CCc3cc(OC)c(OC)cc3[C@H]2Cc2ccc(OC)c(OC)c2)cc1OC [Cisatracurium Besylate],1.05 ± 0.058
4,CCOC(=O)c1c(C)n(C)c2ccc(O)cc12 [Mecarbinate],1.15 ± 0.042
5,Brc1c(NC2=NCCN2)ccc2nccnc12 [Brimonidine Tartrate],1.06 ± 0.025
6,CN(C)CCOC(=O)COc1ccc(Cl)cc1 [Meclofenoxate (Centrophenoxine) HCl],1.143 ± 0.0069
7,N=C(N)N/N=C/c1c(Cl)cccc1Cl [Guanabenz Acetate],1.11 ± 0.09
8,Cc1ccc2c(Cl)cc(Cl)c(O)c2n1 [Chlorquinaldol],0.605 ± 0.018
9,NCc1c[nH]c(=S)n1[C@@H]1CCc2c(F)cc(F)cc2C1 [(R)-Nepicastat HCl],1.121 ± 0.0038
10,O=C(/C=C/n1cnc(-c2cc(C(F)(F)F)cc(C(F)(F)F)c2)n1)N1CC(F)(F)C1,0.355 ± 0.025
11,CC(CCC(=O)NCCS(=O)(=O)O)C1CCC2C3C(O)CC4CC(O)CCC4(C)C3CCC12C (configuration not stated) [Sodium Tauroursodeoxycholate (TUDC)],1.24 ± 0.12
12,Cc1cc(Nc2nc(N[C@@H](C)c3ncc(F)cn3)ncc2Cl)[nH]n1,0.892 ± 0.21
13,COC[C@H](NC(=O)c1cnc(C)s1)C(=O)N[C@@H](COC)C(=O)N[C@@H](Cc1ccccc1)C(=O)[C@@]1(C)CO1 [Oprozomib (ONX 0912)],0.182 ± 0.0023
14,CC[C@@H]1/C=C(\C)C[C@H](C)C[C@H](OC)[C@H]2O[C@@](O)(C(=O)C(=O)N3CCCC[C@H]3C(=O)O[C@H](/C(C)=C/[C@@H]3CC[C@H](Cl)[C@H](OC)C3)[C@H](C)[C@@H](O)CC1=O)[C@H](C)C[C@@H]2OC [Pimecrolimus],1.144 ± 0.0096
15,O=C(O)CC1CC(c2ccccc2)=NO1 (configuration not stated),1.13 ± 0.046
16,Cn1c([N+](=O)[O-])cnc1COC(N)=O [Ronidazole],1.24 ± 0.13
17,CCN(c1cc(-c2ccc(CN3CCOCC3)cc2)cc(C(=O)NCc2c(C)cc(C)[nH]c2=O)c1C)C1CCOCC1,0.974 ± 0.086
18,C=CC(=O)Nc1ccc2ncnc(Nc3ccc(OCc4cccc(F)c4)c(Cl)c3)c2c1,0.362 ± 0.036
19,CC1=C(CC(=O)O)c2cc(F)ccc2/C1=C\c1ccc([S+](C)[O-])cc1 (configuration not stated) [Sulindac],0.999 ± 0.16
20,O=C(O)c1ccccc1C(=O)Nc1ccc(-c2ccccc2)cc1 [Kartogenin],0.91 ± 0.047
21,CC(=O)N1CCN(CCOc2ccc(C3CCN(C4=Nn5c(nnc5C(F)(F)F)CC4)CC3)cc2)CC1,0.928 ± 0.0099
22,C=CC(=O)N1CCC[C@@H](n2nc(-c3ccc(Oc4ccccc4)cc3)c3c(N)ncnc32)C1,0.459 ± 0.46
23,CCc1cccc2c3c([nH]c12)C(CC)(CC(=O)O)OCC3 (configuration not stated) [Etodolac],1.16 ± 0.012
24,Cc1noc(NS(=O)(=O)c2ccc(N)cc2)c1C [Sulfisoxazole],1.09 ± 0.011
25,CCC[C@H](NC(=O)[C@@H]1[C@H]2CCC[C@H]2CN1C(=O)[C@@H](NC(=O)[C@@H](NC(=O)c1cnccn1)C1CCCCC1)C(C)(C)C)C(=O)C(=O)NC1CC1 [Telaprevir (VX-950)],0.934 ± 0.11
26,C[C@@H]1CN(CC(=O)Nc2ccc3c(c2)Cc2cccc(-c4cc(=O)cc(N5CCOCC5)o4)c2S3)C[C@H](C)O1,1.26 ± 0.052

row,Compound,relative cell viability
1,OCC(O)C(O)CO (configuration not stated) [Erythritol],1.16 ± 0.22
2,C[C@]12CC[C@@H]3c4ccc(O)cc4CC[C@H]3[C@@H]1C[C@@H](O)[C@@H]2O [Estriol],1.01 ± 0.085
3,Cc1nc(N)sc1-c1ccnc(Nc2ccc(N3CCOCC3)cc2)n1,0.9362 ± 0.0036
4,CNC(=O)[C@H](Cc1ccccc1)NC(=O)[C@H](CC(C)C)[C@H](CSc1cccs1)C(=O)NO [Batimastat (BB-94)],0.6892 ± 0.0037
5,CCOC(=O)[C@H](CCc1ccccc1)N[C@@H](C)C(=O)N1CCC[C@H]1C(=O)O [Enalapril Maleate],0.987 ± 0.1
6,COc1nc(-c2ccc3c(c2)OCO3)n(-c2ccc(NC(=O)CSc3ccccc3)cc2)n1 [SecinH3],1.25 ± 0.17
7,O=C(Nc1ccc(-c2ccnc(Nc3ccc(N4CCOCC4)cc3)n2)cc1)C1CCCN1 (configuration not stated),1.23 ± 0.15
8,COc1ccc2[nH]c([S+]([O-])Cc3ncc(C)c(OC)c3C)nc2c1 (configuration not stated) [Omeprazole],1.27 ± 0.18
9,Nc1cccc2c1CN(C1CCC(=O)NC1=O)C2=O (configuration not stated) [Lenalidomide (CC-5013)],1.37 ± 0.16
10,NC(=S)N/N=C/c1ncccc1N [Triapine],1.28 ± 0.11
11,Cn1c2ccccc2c2c3c(c4c5ccccc5n(CCC#N)c4c21)CNC3=O,0.893 ± 0.047
12,COc1ccc(CNC(=O)Nc2ncc([N+](=O)[O-])s2)cc1,1.15 ± 0.19
13,OCCOCCN1CCN(C(c2ccccc2)c2ccc(Cl)cc2)CC1 (configuration not stated) [Hydroxyzine 2HCl],1.14 ± 0.14
14,C/C(=N\NC(=O)c1cccc(S(=O)(=O)N2CCOCC2)c1)c1cc(Cl)ccc1O,0.894 ± 0.038
15,O=C(NS(=O)(=O)c1ccc(Br)s1)c1ccc(Cl)cc1Cl [Tasisulam],1.16 ± 0.017
16,[I-].[K+] [Potassium Iodide],1.16 ± 0.013
17,Cc1cc(-n2c(=O)[nH]c(=O)n(C)c2=O)ccc1Oc1ccc(SC(F)(F)F)cc1 [Toltrazuril],1.13 ± 0.24
18,Cc1ccccc1N1C(=O)c2cc(S(N)(=O)=O)c(Cl)cc2NC1C (configuration not stated) [Metolazone],0.96465 ± 7.9e-05
19,O=NN(CCCl)C(=O)NC1CCCCC1 [Lomustine],0.963 ± 0.061
20,COc1cc(CCC(C)=O)ccc1O [Vanillylacetone],1.08 ± 0.067
21,COc1cnc(NS(=O)(=O)c2ccc(N)cc2)nc1 [Sulfameter],1.16 ± 0.073
22,CC(C)c1cc(C(=O)N2Cc3ccc(CN4CCN(C)CC4)cc3C2)c(O)cc1O,0.741 ± 0.025
23,C[C@]12CC[C@@H]3c4ccc(O)cc4CC[C@H]3[C@@H]1CCC2=O [Estrone],1.042 ± 0.0093
24,Nc1ncnc2c1c(-c1cccc(OCc3ccccc3)c1)cn2C1CC(CN2CCC2)C1 (configuration not stated),1 ± 0.035
25,COc1cc(C(=O)NC2CCCNC2)cc(OC)c1OC (configuration not stated) [Troxipide],1.2301 ± 0.0012
26,CCCCCCCCc1ccc(CCC(N)(CO)CO)cc1 [Fingolimod (FTY720) HCl],0.924 ± 0.031
